This is one part of the list. These are noisy estimates, calculated here from bound and input reads.
Biological target: T1, Pho4 (S. cerevisiae) (UniProt P07270)
T1 sequence: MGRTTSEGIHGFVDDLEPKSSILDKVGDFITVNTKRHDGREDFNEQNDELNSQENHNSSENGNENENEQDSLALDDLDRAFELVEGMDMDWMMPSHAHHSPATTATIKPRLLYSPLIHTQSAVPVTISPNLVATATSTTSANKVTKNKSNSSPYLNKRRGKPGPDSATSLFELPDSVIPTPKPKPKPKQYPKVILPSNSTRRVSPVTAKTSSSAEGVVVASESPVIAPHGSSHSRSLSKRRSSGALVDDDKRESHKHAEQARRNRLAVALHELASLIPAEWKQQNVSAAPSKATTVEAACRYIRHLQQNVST
Test: relative binding free energy (BET-seq); higher = weaker binding
Details: reference: library average

Sequence | relative binding free energy [kcal/mol]
CTATGCACGTGGAGTA | -0.03
ATCGGCACGTGGTTCG | -0.1
GTATGCACGTGCGGAG | -0.07
GATAGCACGTGGGCGT | -0.32
GTGTTCACGTGACATT | 0.3
AGCGACACGTGCGGGG | -0.07
GGCTGCACGTGTCGGG | 0.14
TTGGGCACGTGAGTCG | 0.16
TATAGCACGTGAGTGG | 0.17
TTTACCACGTGTGTGC | -0.04
CGGGGCACGTGTTGAA | -0.24
TAGTCCACGTGAGTTT | 0.21
TGGTCCACGTGGTTTT | 0.01
GGGGTCACGTGGGTTA | 0.05
ATGCTCACGTGTGTTA | 0.17
GAGGGCACGTGAAGCG | 0.09
TGGGACACGTGGGGGC | -0.09
TTCTTCACGTGATGAT | 0.38
GTCAGCACGTGTCTGT | -0.04
TAAATCACGTGTGAAT | 0.25
GCTAGCACGTGGCGCG | 0.1
TCTGGCACGTGGTGGC | -0.27
GCTCGCACGTGGGGGC | -0.08

Sequence | relative binding free energy [kcal/mol]
CGAGTCACGTGTAGGT | 0.16
TTTAGCACGTGTACTG | -0.18
ATACTCACGTGTGGTG | 0.11
ATGATCACGTGGTGGT | 0.16
CGTATCACGTGGGGCG | -0.02
TTGTTCACGTGCATTT | 0.27
AATGGCACGTGTGGGC | 0.01
TGGGTCACGTGGAGTC | 0
GTGGTCACGTGAAAGG | 0.34
AAGTTCACGTGGAATT | 0.46
ATGGACACGTGGGAGT | -0.12
TCAGTCACGTGGTGGG | 0.13
TGTGCCACGTGTTCAG | -0.12
CTAGTCACGTGGATTG | 0.02
TGAATCACGTGAAGTG | 0.32
GTTGTCACGTGTGCTT | 0.17
GGATACACGTGCAGTG | 0.12
GGCTTCACGTGGTTAG | 0.17
TAGGTCACGTGTGATC | 0.18
ATAATCACGTGCTGGT | 0.11
GGGCACACGTGCGGTA | 0.03
CGTGTCACGTGGAAGA | 0.2
AGAGCCACGTGGGGCG | -0.25

Sequence | relative binding free energy [kcal/mol]
TAAGTCACGTGGCTGT | 0.04
CATGGCACGTGGGTAT | -0.18
TTAGGCACGTGGAATA | -0.06
CCGGGCACGTGGGTTA | -0.27
GGTGACACGTGCGGGT | -0.01
TTTTACACGTGTGCGC | 0.1
GTAGACACGTGGCGGG | 0
TGGGTCACGTGAACTG | 0.38
TCGGTCACGTGTTGAA | 0.28
ATGGTCACGTGGTCCG | 0.04
TTAGTCACGTGATTTC | 0.12
TACTTCACGTGTGTTG | 0.28
GGTTGCACGTGATACT | 0.13
GGAGCCACGTGGGTAT | -0.21
TGAGACACGTGGGGTT | -0.06
GAGTTCACGTGAGCTG | 0.37
TTGATCACGTGGAGAG | 0.11
TCTATCACGTGGAGGT | 0.22
TTATACACGTGATTTG | 0.23
ATTGGCACGTGTAGTG | -0.09
AGAGGCACGTGGCGGT | -0.21
TGTGACACGTGCGAGG | 0
GTGGGCACGTGGTTCC | 0

Sequence | relative binding free energy [kcal/mol]
ATAGACACGTGATTTG | -0.01
GTCGGCACGTGGATAG | -0.01
GTAGGCACGTGTCGGA | -0.08
TCTAGCACGTGTGAAG | 0.1
TGTGTCACGTGAGATA | 0.14
TACTTCACGTGGGTGA | 0.13
CGTGGCACGTGGGAGC | -0.22
ATGTTCACGTGTAAAA | 0.41
CCTGTCACGTGGGAGG | -0.05
AAGTACACGTGTGTGT | -0.06
AGTAGCACGTGAGGAA | 0.2
AATGGCACGTGTGGTA | -0.03
GTCTTCACGTGAGGGC | 0.54
TATTTCACGTGGGATC | 0.2
TGGCACACGTGGTAGG | 0
AAATGCACGTGCTGTT | 0.1
TTATGCACGTGAGGAC | 0.19
ATTTACACGTGAGTAG | 0.19
TTGGGCACGTGTTCAT | -0.1
ATGGTCACGTGCCTTA | 0.22
TGCATCACGTGTTTTT | 0.16
GTAGGCACGTGTGTGT | -0.04
GGATACACGTGAGGAT | 0.29

Sequence | relative binding free energy [kcal/mol]
GTTCACACGTGTAAGG | 0.19
AATCGCACGTGGGATG | -0.17
GGGATCACGTGAGTGT | 0.3
GTTTTCACGTGGTGAC | 0.39
TATAGCACGTGTTATA | -0.04
GGAGTCACGTGCGTTA | 0.1
TTGGTCACGTGACGCT | 0.16
TTGTACACGTGAGGGC | 0.33
TGATTCACGTGTCGTA | 0.12
AGGGACACGTGTTTAT | 0.06
CAAGGCACGTGTTTGT | -0.13
CAGGGCACGTGACTGG | 0.11
GGATGCACGTGCGGTA | -0.06
CGCGACACGTGGTGTG | -0.11
CAGTGCACGTGTGTGG | 0.09
TGCGTCACGTGCTTTG | 0
GTTATCACGTGGTGCC | 0.18
GAGTGCACGTGTATGA | 0.11
GTAATCACGTGGTATT | 0.12
TGTTTCACGTGCGATG | 0.28
TAAGGCACGTGCGTGG | -0.28
TGGTCCACGTGGGGCT | -0.12
TTCATCACGTGTTCGT | 0.21

From the BET-seq Pho4 binding data (Le et al. 2018)
